Measured values: PMC8943206
Results are given in words; binding and its absence hold for the method and conditions named. Binding seen in cells or lysates may run through a third protein.

Protein sequences, listed by entry. Tags and fused reporters are not part of them.
UniProt Q15366: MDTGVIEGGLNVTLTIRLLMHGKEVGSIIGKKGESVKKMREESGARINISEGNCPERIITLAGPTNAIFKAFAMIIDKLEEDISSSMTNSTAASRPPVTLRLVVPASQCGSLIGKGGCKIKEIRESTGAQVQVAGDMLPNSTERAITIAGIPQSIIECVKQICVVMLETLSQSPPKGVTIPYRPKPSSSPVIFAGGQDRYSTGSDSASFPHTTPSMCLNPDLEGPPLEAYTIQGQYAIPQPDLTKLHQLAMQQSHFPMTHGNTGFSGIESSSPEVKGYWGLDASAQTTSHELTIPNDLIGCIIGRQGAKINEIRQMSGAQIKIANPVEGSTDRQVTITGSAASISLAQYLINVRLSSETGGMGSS

How the values were obtained:
[1] = target: PCBP2 full-length (FL), transfected in HEK293T (tag not told) (human) (UniProt Q15366); experiment: co-IP
[2] = target: PCBP2, endogenous in THP-1 (human (endogenous in THP-1)) (UniProt Q15366); experiment: co-IP; endogenous; THP-1 cells with or without HT-DNA (2 μg/ml); PCBP2 antibody or control IgG, protein A/G beads; immunoblot

binding [1] | binding [2] | Binder
no binding |  | TBK1, transfected in HEK293T (enzyme, UniProt Q9UHD2 1-729) MQSTSNHLWLLSDILGQGATANVFRGRHKKTGDLFAIKVFNNISFLRPVDVQMREFEVLKKLNHKNIVKLFAIEEETTTRHKVLIMEFCPCGSLYTVLEEPSNAYGLPESEFLIVLRDVVGGMNHLRENGIVHRDIKPGNIMRVIGEDGQSVYKLTDFGAARELEDDEQFVSLYGTEEYLHPDMYERAVLRKDHQKKYGATVDLWSIGVTFYHAATGSLPFRPFEGPRRNKEVMYKIITGKPSGAISGVQKAENGPIDWSGDMPVSCSLSRGLQVLLTPVLANILEADQEKCWGFDQFFAETSDILHRMVIHVFSLQQMTAHKIYIHSYNTATIFHELVYKQTKIISSNQELIYEGRRLVLEPGRLAQHFPKTTEENPIFVVSREPLNTIGLIYEKISLPKVHPRYDLDGDASMAKAITGVVCYACRIASTLLLYQELMRKGIRWLIELIKDDYNETVHKKTEVVITLDFCIRNIEKTVKVYEKLMKINLEAAELGEISDIHTKLLRLSSSQGTIETSLQDIDSRLSPGGSLADAWAHQEGTHPKDRNVEKLQVLLNCMTEIYYQFKKDKAERRLAYNEEQIHKFDKQKLYYHATKAMTHFTDECVKKYEAFLNKSEEWIRKMLHLRKQLLSLTNQCFDIEEEVSKYQEYTNELQETLPQKMFTASSGIKHTMTPIYPSSNTLVEMTLGMKKLKEEMEGVVKELAENNHILERFGSLTMDGGLRNVDCL
 | no binding | TBK1, endogenous in THP-1 (enzyme, UniProt Q9UHD2 1-729) MQSTSNHLWLLSDILGQGATANVFRGRHKKTGDLFAIKVFNNISFLRPVDVQMREFEVLKKLNHKNIVKLFAIEEETTTRHKVLIMEFCPCGSLYTVLEEPSNAYGLPESEFLIVLRDVVGGMNHLRENGIVHRDIKPGNIMRVIGEDGQSVYKLTDFGAARELEDDEQFVSLYGTEEYLHPDMYERAVLRKDHQKKYGATVDLWSIGVTFYHAATGSLPFRPFEGPRRNKEVMYKIITGKPSGAISGVQKAENGPIDWSGDMPVSCSLSRGLQVLLTPVLANILEADQEKCWGFDQFFAETSDILHRMVIHVFSLQQMTAHKIYIHSYNTATIFHELVYKQTKIISSNQELIYEGRRLVLEPGRLAQHFPKTTEENPIFVVSREPLNTIGLIYEKISLPKVHPRYDLDGDASMAKAITGVVCYACRIASTLLLYQELMRKGIRWLIELIKDDYNETVHKKTEVVITLDFCIRNIEKTVKVYEKLMKINLEAAELGEISDIHTKLLRLSSSQGTIETSLQDIDSRLSPGGSLADAWAHQEGTHPKDRNVEKLQVLLNCMTEIYYQFKKDKAERRLAYNEEQIHKFDKQKLYYHATKAMTHFTDECVKKYEAFLNKSEEWIRKMLHLRKQLLSLTNQCFDIEEEVSKYQEYTNELQETLPQKMFTASSGIKHTMTPIYPSSNTLVEMTLGMKKLKEEMEGVVKELAENNHILERFGSLTMDGGLRNVDCL
no binding |  | IRF3, transfected in HEK293T (protein, UniProt Q14653 1-427) MGTPKPRILPWLVSQLDLGQLEGVAWVNKSRTRFRIPWKHGLRQDAQQEDFGIFQAWAEATGAYVPGRDKPDLPTWKRNFRSALNRKEGLRLAEDRSKDPHDPHKIYEFVNSGVGDFSQPDTSPDTNGGGSTSDTQEDILDELLGNMVLAPLPDPGPPSLAVAPEPCPQPLRSPSLDNPTPFPNLGPSENPLKRLLVPGEEWEFEVTAFYRGRQVFQQTISCPEGLRLVGSEVGDRTLPGWPVTLPDPGMSLTDRGVMSYVRHVLSCLGGGLALWRAGQWLWAQRLGHCHTYWAVSEELLPNSGHGPDGEVPKDKEGGVFDLGPFIVDLITFTEGSGRSPRYALWFCVGESWPQDQPWTKRLVMVKVVPTCLRALVEMARVGGASSLENTVDLHISNSHPLSLTSDQYKAYLQDLVEGMDFQGPGES
 | no binding | IRF3, endogenous in THP-1 (protein, UniProt Q14653 1-427) MGTPKPRILPWLVSQLDLGQLEGVAWVNKSRTRFRIPWKHGLRQDAQQEDFGIFQAWAEATGAYVPGRDKPDLPTWKRNFRSALNRKEGLRLAEDRSKDPHDPHKIYEFVNSGVGDFSQPDTSPDTNGGGSTSDTQEDILDELLGNMVLAPLPDPGPPSLAVAPEPCPQPLRSPSLDNPTPFPNLGPSENPLKRLLVPGEEWEFEVTAFYRGRQVFQQTISCPEGLRLVGSEVGDRTLPGWPVTLPDPGMSLTDRGVMSYVRHVLSCLGGGLALWRAGQWLWAQRLGHCHTYWAVSEELLPNSGHGPDGEVPKDKEGGVFDLGPFIVDLITFTEGSGRSPRYALWFCVGESWPQDQPWTKRLVMVKVVPTCLRALVEMARVGGASSLENTVDLHISNSHPLSLTSDQYKAYLQDLVEGMDFQGPGES
